In patent US10806795B2, “Bispecific anti-hapten/anti-blood brain barrier receptor antibodies, complexes thereof and their use as blood brain barrier shuttles” (Hoffmann-La Roche Inc., priority 2014, dated 2020):

System: brain endothelial cells (hCMEC/D3)
Test: Transwell assay of cell binding, transcytosis and release of shuttle modules (IgG ELISA)
Type: cell-based, human
Conditions: incubated apically 1 h at 37° C., antibody quantified by IgG ELISA over time
From the text: We used brain endothelial cells (hCMEC/D3) to investigate cell binding and transcytosis of the shuttle modules as reported herein. Previous studies (Crepin et al., 2010; Lesley et al., 1989, WO 2012/075037, WO 2014/033074) reported that valency and affinity of TfR binding antibodies influence efficacy of binding to, transcytosis though, and release from endothelial cells of the blood brain barrier. To investigate cell binding and transcytosis in hCMEC/D3, hCMEC/D3 cells cultured on filter inserts were incubated apically with the bispecific antibody or parent antibody (without hapten-binding scFvs as controls) for 1 h at 37° C. Cell monolayers were washed at RT in serum-free medium apically (400 μl) and basolaterally (1600 μl) three times for 3-5 min. each. All wash volumes were collected to monitor efficiency of removal of the unbound ligand or antibody. Pre-warmed medium was added to the apical chamber and the filters transferred to a fresh 12 well plate (blocked overnight with PBS containing 1% BSA) containing 1600 μl pre-warmed medium. At this point, cells on some of the filters were lysed in 500 μl RIPA buffer (Sigma, Munich, Germany, # R0278) in order to determine specific uptakes. The remaining filters were incubated at 37° C., and samples of cells and of basolateral and apical media were collected at various time points to determine apical and/or basolateral release. The content of antibody in the samples was quantified using a highly sensitive IgG ELISA.

B1: TfR2: antibody that binds to the transferrin receptor with reduced affinity (protein)
light: QIVLTQSPAIMSASPGEKVTVTCSASSSIRYMHWYQQKPGTSPKRWIYDTSELASGVPARFSGSGSGTSYSLTINSMEAEDAATYYCHQRSSYPFTFGGGTKLEIKRTVAAPSVFIFPPSDEQLKSGTASVVCLLNNFYPREAKVQWKVDNALQSGNSQESVTEQDSKDSTYSLSSTLTLSKADYEKHKVYACEVTHQGLSSPVTKSFNRGEC
heavy: EVQLQQSGPELVKPGASVKMSCKASGYTFTSYVMHWVKQKPGQGLEWIGYVNPYNDDTKYNEKFRGKATLTSDKSSSTAYMELSSLTSEDSAVYYCARSYYYYSMDNWGQGTSVTVSS[skipping human IgG1 constant region]GGGGSGGGGSQVQLVESGGGLVKPGGSLRLSCAASGFTFSDYAMSWIRQAPGKCLEWVSSINIGATYIYYADSVKGRFTISRDNAKNSLYLQMNSLRAEDTAVYYCARPGSPYEYDKAYYSMAYWGQGTTVTVSSGGGGSGGGGSGGGGSDIQMTQSPSSLSASVGDRVTITCRASQDIKNYLNWYQQKPGKAPKLLIYYSSTLLSGVPSRFSGSGSGTDFTLTISSLQPEDFATYYCQQSITLPPTFGCGTKVEIK
modifications: LC anti-TfR2 antibody; HC anti-TfR2 antibody conjugated to scFv anti- digoxigenin antibody fragment
binding to cells and release to apical or basolateral compartments: efficiently bound to the cells, and become subsequently released over time to apical or basolateral compartments

B2: TfR2-Bio (protein)
light: QIVLTQSPAIMSASPGEKVTVTCSASSSIRYMHWYQQKPGTSPKRWIYDTSELASGVPARFSGSGSGTSYSLTINSMEAEDAATYYCHQRSSYPFTFGGGTKLEIKRTVAAPSVFIFPPSDEQLKSGTASVVCLLNNFYPREAKVQWKVDNALQSGNSQESVTEQDSKDSTYSLSSTLTLSKADYEKHKVYACEVTHQGLSSPVTKSFNRGEC
heavy: EVQLQQSGPELVKPGASVKMSCKASGYTFTSYVMHWVKQKPGQGLEWIGYVNPYNDDTKYNEKFRGKATLTSDKSSSTAYMELSSLTSEDSAVYYCARSYYYYSMDNWGQGTSVTVSS[skipping human IgG1 constant region]GGGGSGGGGSDIQMTQSPSSLSASVGDRVTITCRASGNIHNYLSWYQQKPGKVPKLLIYSAKTLADGVPSRFSGSGSGTDFTLTISSLQPEDVATYYCQHFWSSIYTFGCGTKLEIKRGGGGSGGGGSGGGGSGGGGSQVQLVQSGAEVKKPGSSVKVSCKSSGFNNKDTFFQWVRQAPGQCLEWMGRIDPANGFTKYAQKFQGRVTITADTSTSTAYMELSSLRSEDTAVYYCARWDTYGAAWFAYWGQGTLVTVSS
binding to cells and release to apical or basolateral compartments: efficiently bound to the cells and are released to apical or basolateral compartments to the same degree as the parent antibody

B3: TfR2-Dig: digoxigenylated payload binding shuttle module, reduced affinity TfR, SEQ ID NO: 196 and 197 (protein)
light: QIVLTQSPAIMSASPGEKVTVTCSASSSIRYMHWYQQKPGTSPKRWIYDTSELASGVPARFSGSGSGTSYSLTINSMEAEDAATYYCHQRSSYPFTFGGGTKLEIKRTVAAPSVFIFPPSDEQLKSGTASVVCLLNNFYPREAKVQWKVDNALQSGNSQESVTEQDSKDSTYSLSSTLTLSKADYEKHKVYACEVTHQGLSSPVTKSFNRGEC
heavy: EVQLQQSGPELVKPGASVKMSCKASGYTFTSYVMHWVKQKPGQGLEWIGYVNPYNDDTKYNEKFRGKATLTSDKSSSTAYMELSSLTSEDSAVYYCARSYYYYSMDNWGQGTSVTVSS[skipping human IgG1 constant region]GGGGSGGGGSQVQLVESGGGLVKPGGSLRLSCAASGFTFSDYAMSWIRQAPGKCLEWVSSINIGATYIYYADSVKGRFTISRDNAKNSLYLQMNSLRAEDTAVYYCARPGSPYEYDKAYYSMAYWGQGTTVTVSSGGGGSGGGGSGGGGSDIQMTQSPSSLSASVGDRVTITCRASQDIKNYLNWYQQKPGKAPKLLIYYSSTLLSGVPSRFSGSGSGTDFTLTISSLQPEDFATYYCQQSITLPPTFGCGTKVEIK
modifications: digoxigenylated payload; LC anti-TfR2 antibody; HC anti-TfR2 antibody conjugated to scFv anti- digoxigenin antibody fragment
binding to cells and release to apical or basolateral compartments: efficiently bound to the cells and are released to apical or basolateral compartments to the same degree as the parent antibody
